Experimental data: the supplement of paper PMC10126150
Values marked as one replicate rest on one cluster of the flow cell; about a third of the high ones do not repeat.

Tested on: ATP
Test: switch fluorescence ratio, 500 uM ATP over buffer (Cy3 cluster intensity, sum of 5 cycles each) (fold (ratio)); higher = stronger signal-on switching upon ATP binding; sequences stand for … in TCGTCGGCAGCGTCAGATGTGTATAAGAGACAGTTTTTTTTTTTTTTTTTTTTTTTTT…TC
Settings: aptamer strand: ATP DNA aptamer (quencher-CACCTGGGGGAGTATTGCGGAGGAAGG + anchor), 100 nM annealed; ATP concentration: 500 uM; one replicate
In short: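 Exposure to 500 uM ATP lasted 15 min at 22 °C before imaging, and a selection-buffer image was taken beforehand, for Cy3-labelled switching-strand clusters on a modified Illumina MiSeq flow-cell annealed to 100 nM quencher-labelled ATP aptamer. Five buffer/ATP cycles were run with NaOH stripping and re-annealing between them. The fluorescence ratio per cluster is summed target-cycle over summed buffer-cycle Cy3 intensity, averaged per switch-domain sequence. Clusters outside 100-1000 RFU were excluded.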

Sequence	switch fluorescence ratio
TCGACTTGCG	0.961
CAACTTTGCC	1.02
TAGCTGAGTA	0.95
TCGAGGGTTT	0.95
TGGATCGTCA	0.998
GCTACCAGTA	1.06
CATGGTGGGG	0.933
TGATCGGGAG	1.03
CCACAATGTA	1.22
CAATTCAAAC	1.01
CGTTATTGCC	1.04
TATCATGTCT	0.965
AGGGCGAGT	1.02
ACCAACACGG	1.21
TGGCGGGGAT	1.04
TTTACAGCTA	0.998
ACGCTAAGGT	1.11
AGAAGGCATG	0.99
CTATTACAAG	1.03
AGGAATGTAT	0.974
TGCTATGAGA	0.981
CCAATGTCAG	0.959
CAAAGGTCGT	1

Sequence	switch fluorescence ratio
CCAGGCCTGT	1.03
CTGAGCTCGG	1
GTTTTTGGCT	1.05
TTTTGTCGAC	0.985
TGGACGGGGT	1.01
GTCCGTTTTT	0.984
CGATTCATT	1.02
GTTTTACATC	1.01
CCGGGTACAC	1.48
GGTCCTTCGG	1.03
GCTGTTTGGC	0.959
TGCAGGAAGC	0.965
GTGGGGGTCC	1.02
ATTCTGTATG	0.998
ATGAGTGTGC	1
GCAGGGCTAA	0.984
ATTCGTACGG	0.966
ATCTAAACCA	1.05
CCAGGGCGTA	1.02
GGAAGTAGAG	1.01
GTAAGAAGTT	1.11
AGCGGGCTAC	1.05
CCGAGCCTTC	4.13

Sequence	switch fluorescence ratio
ATCTCATTCT	1.03
ATCAGGTCC	1.03
TATAATCAGC	0.961
AAGAGACTAC	1.05
TCTCAGGTAT	0.976
GAACGTGCCC	1.04
CGTAACGGA	0.973
ATTTAGATAG	0.984
CGCGGCACAC	4.82
TGATCTTTTG	1.01
GACGTGCTCC	1.65
TAAGTCACGA	1.08
AAATGGTG	1.07
GACTTATACC	1.11
GACTCTAGAT	1.08
ACCTACACTA	1.3
ATAGGAGGAG	0.974
CTTGTGAGAG	1.02
GTGACCAT	1.02
TTCTGGGGG	0.951
CATGAGGTAA	1.08
CTAGCATGGT	1.09
TCGAACCGCG	0.995

Sequence	switch fluorescence ratio
ACAGTTCAAT	1.02
ACGGGAGACA	1.1
AATTTAAAAT	0.962
TCGTGTTGCT	1.05
GGAGGTCAGT	0.984
CGGTGTACTT	0.978
GATTGCACGG	1.07
GCCAGGGGTC	0.996
AATGTAATGC	1.04
TCGAGATCTG	0.996
GCGGATTAC	2.71
CACGCTTTCA	1.04
TGCTTGGATC	1.02
CATTACTGGG	0.961
GATGTCGATC	1.02
CTTGTGATGA	0.986
TGTTCACAAT	1.06
GGAGGGTCAG	0.945
GAAAATCAGG	0.996
GACGGTTACT	1.18
TGGAAGTCAT	1
TGAATCCCAC	1.09
ACGCCAGGGG	2.96

Sequence	switch fluorescence ratio
TTGATCCGCG	1.35
CAAGCCGGTC	1.06
CGGAGCGGGC	1.28
CGAAATTGT	1.87
TAGCCGACCT	0.984
GTGGGAAAAG	0.964
GCGTTGCTTA	0.966
GGAATCACGC	1
CGGTCAGGCC	0.985
TGCGATGCCT	1.04
TTGGGAATTG	1.12
TGTTTGAGCT	1.02
GCACTGATTT	1.01
ACGTAGCATT	3.22
ACAATTTGTG	1.02
ATCACTCAT	1.01
GCAGGCCAAC	1.18
TATCCTCACT	1.04
TAATCTAAGG	0.957
CGTTCAGCGT	0.994
CAGTCCTTAT	1.01
AGGTGCAGCT	1.01
CCTCTAAACG	1.66

Sequence	switch fluorescence ratio
GGTATTTTCT	1.02
TACGTATTTC	1.13
TAAGAGTACC	1.01
GGCCGTCTGG	1.01
CAGAACAAGC	1.02
AGGAGTAT	1.02
TATTTAGAGA	0.973
AGGCCGCGCT	1.03
GACCTATGCT	0.996
CCCAGCTGGT	1.02
AGATTCTCGC	1.04
CTCGACTTCC	2.6
TCTTCAGGTA	0.966
ACATACATTT	1.25
TTTGATGATT	1.04
AGACGTTAGG	0.985
GAGTCAAGGC	1.08
TTCATCTCGT	1.02
CGGCCGCTT	1.27
GATACCGCTT	1.54
ATGATTGGCG	1.06
CGCCGTAGA	1.06
CGTTAATAGA	1.03

Sequence	switch fluorescence ratio
GTATCATCTT	1
AAGCCTGCGG	0.976
CGTGCATGTG	0.993
CGTCTGAA	0.959
TTTGTTCAAT	1.04
TTCTTTTTT	1.01
TAGAGGAAGT	1.01
GTTTTGAGTC	1
CGCGTGTGTA	1
TTTGGACGAA	0.965
GCGGAGTTCG	1
ATCGTTTTAC	1.06
TAGCGGAAAG	0.977
AAGAGAAGGT	0.947
ACATTACCG	1.35
ACTAGCCCT	1.04
CGCGGAGAAG	1.02
TATGAGGAGA	1.02
TAAGCTGAGC	1.02
ATTTAGAGA	1.03
